The assay deals with P388 leukemia ip, CD2F1 mice, survival T/C. Nature of the assay: NCI In Vivo Anticancer Drug Screen. Data for tumor model P388 Leukemia (intraperitoneal) in CD2F1 (CDF1) mice. As to conditions: endpoint: median survival time, higher = longer survival.

Inconclusive results and toxic doses are left out. Some entries of the source have several records that differ or are many. Only these are listed. The source may hold further records. The records of an entry do not match, cause unknown; they may come from other doses, times, organisms or constructs than stated.

Consider `O=C(O)CCCc1ccc(N(CCCl)CCCl)cc1`, for which, for the setting “dose: 15.0 mg/kg/injection, schedule: Q01DX009 (ip), vehicle: saline + alcohol”, the T/C was 92 % of control and 166 % of control.
On to `O=C1C(N2CC2)=C(N2CC2)C(=O)c2ncncc21`, for which the T/C (dose: 20.0 mg/kg/injection, schedule: Q01DX005 (ip), vehicle: saline) is 110 % of control and 153 % of control.
With `CC[C@@]1(O)C[C@H](OC2CC(N(C)C)C(OC3CC(O)C(OC4CCC(=O)C(C)O4)C(C)O3)C(C)O2)c2c(cc3c(c2O)C(=O)c2c(O)ccc(O)c2C3=O)[C@H]1C(=O)OC` (stereo partly drawn), under “dose: 7.2 mg/kg/injection, schedule: Q04DX003 (ip), vehicle: water”, the T/C is 105 % of control and 161 % of control.

For the origin of these results see PubChem BioAssay AID330 (DTP/NCI, 2004).
